Some of the results follow.

The subject of one test is HSkMC. In words: cytotoxicity call (relative viability < 0.9). The settings on record: 10 µM.
The next test concerns HepG2. Description: cytotoxicity call (relative viability < 0.9). The settings on record: 10 µM.
For another test, the system named is S. aureus RN4220. Description: growth inhibition call (relative growth <= 0.2). The settings on record: 50 µM.

Turning to `C[C@H](CO)N1C[C@H](C)[C@H](CN(C)C(=O)Nc2cccc3ccccc23)OCCCC[C@H](C)Oc2ccc(NC(=O)CCCN(C)C)cc2C1=O`, the cytotoxicity call in the test on HSkMC and with HepG2 was “inactive” throughout. For the same compound, the growth inhibition call in the test on S. aureus RN4220 is “inactive”.
In the case of `NC(=O)C[C@H]1Nc2ccccc2NC1=O`, the cytotoxicity call in the test on HSkMC and in the test with HepG2 was “inactive” each time. The growth inhibition call with S. aureus RN4220 was “inactive”.
In the case of `COc1ccc(S(=O)(=O)Nc2ccc3c(c2)C(=O)N([C@@H](C)CO)C[C@H](C)[C@H](CN(C)C(=O)Nc2cccc4ccccc24)OCCCC[C@@H](C)O3)cc1`, the cytotoxicity call with HSkMC and in the test on HepG2 was “inactive” in each case. Besides, the growth inhibition call in the test with S. aureus RN4220 was “inactive”.
For `O=C(C[C@H]1C[C@@H]2c3cc(NS(=O)(=O)c4ccccc4)ccc3O[C@@H]2[C@@H](CO)O1)NCC(F)(F)F`, the cytotoxicity call with HSkMC and with HepG2 was “inactive” in each case. Moreover, the growth inhibition call in the test on S. aureus RN4220 is “inactive”.
Regarding `COc1ccc(S(=O)(=O)N(C)C[C@H]2Oc3c(NS(=O)(=O)c4c(C)noc4C)cccc3C(=O)N([C@@H](C)CO)C[C@@H]2C)cc1`, the cytotoxicity call in the test on HSkMC and with HepG2 was “inactive” in each case. The growth inhibition call in the test with S. aureus RN4220 was “inactive”.
For `CCS(=O)(=O)N1C[C@]2(C1)CN([C@@H](CO)c1c2c2ccc(cc2n1C)OC)C(=O)CN1CCOCC1`, the cytotoxicity call in the test on HSkMC and in the test on HepG2 was “inactive” each time. Also, in the test with S. aureus RN4220, the growth inhibition call is “inactive”.
As to `C[C@@H]1CN([C@H](C)CO)C(=O)c2cccc(NC(=O)C3CCOCC3)c2O[C@@H]1CN(C)S(=O)(=O)c1cn(C)cn1`, the cytotoxicity call in the test on HSkMC and in the test with HepG2 was “inactive” throughout. In the test with S. aureus RN4220, the growth inhibition call is “inactive”.
For the compound `COc1ccc(S(=O)(=O)Nc2cccc3c2O[C@H](CN(C)S(=O)(=O)c2ccccc2)[C@H](C)CN([C@H](C)CO)C3=O)cc1`, the cytotoxicity call in the test on HSkMC and in the test with HepG2 was “inactive” each time. Besides, in the test with S. aureus RN4220, the growth inhibition call was “inactive”.
With `C[C@@H]1CN([C@@H](C)CO)C(=O)c2c(c3ccccc3n2C)-c2ccccc2CO[C@@H]1CN(C)CC1CCCCC1`, the cytotoxicity call in the test with HSkMC is “inactive”. Also, the cytotoxicity call in the test on HepG2 is “active”. Further, the growth inhibition call with S. aureus RN4220 was “inactive”.
For the compound `C[C@@H]1CN([C@@H](C)CO)C(=O)c2c(c3ccccc3n2C)-c2ccccc2CO[C@@H]1CN(C)Cc1ccc(O)cc1`, the cytotoxicity call in the test with HSkMC and in the test with HepG2 was “inactive” in each case. Besides, the growth inhibition call in the test on S. aureus RN4220 is “inactive”.
As to `C[C@@H]1CCCCO[C@@H](CN(C)C(=O)CCCN(C)C)[C@H](C)CN([C@@H](C)CO)C(=O)c2cc(NS(=O)(=O)c3cn(C)cn3)ccc2O1`, the cytotoxicity call in the test on HSkMC and in the test with HepG2 was “inactive” throughout. In addition, the growth inhibition call in the test with S. aureus RN4220 was “inactive”.
As for `COCC#Cc1ccc2c(c1)O[C@@H](CN(C)S(=O)(=O)c1ccc(C)cc1)[C@@H](C)CN([C@@H](C)CO)S2(=O)=O`, the cytotoxicity call in the test with HSkMC and with HepG2 was “inactive” in each case. In the test on S. aureus RN4220, the growth inhibition call is “inactive”.
As for `C[C@@H]1CCCCO[C@@H](CN(C)CC2CCCCC2)[C@H](C)CN([C@H](C)CO)C(=O)c2cc(NC(=O)C3CCCCC3)ccc2O1`, the cytotoxicity call in the test on HSkMC and with HepG2 was “inactive” each time. For the same compound, the growth inhibition call in the test on S. aureus RN4220 was “inactive”.
On to `OCCC12CC3CC(CC(C3)C1)C2`, for which the cytotoxicity call with HSkMC and in the test with HepG2 was “inactive” in each case. Moreover, in the test on S. aureus RN4220, the growth inhibition call is “inactive”.
Turning to `NCC[C@H]1CC[C@@H](NC(=O)C2CC2)[C@H](CO)O1`, the cytotoxicity call in the test with HSkMC and with HepG2 was “inactive” throughout. In addition, the growth inhibition call in the test on S. aureus RN4220 was “inactive”.
Turning to `C[C@@H]1CN([C@H](C)CO)C(=O)c2cc(NC(=O)Cn3cnnn3)ccc2O[C@@H]1CN(C)Cc1ccc(Oc2ccccc2)cc1`, the cytotoxicity call in the test with HSkMC and with HepG2 was “inactive” throughout. The growth inhibition call in the test with S. aureus RN4220 is “inactive”.
`CC(C)NC(=O)Nc1ccc2c(c1)CC(=O)N([C@@H](C)CO)C[C@@H](C)[C@H](CN(C)Cc1ccc(C(=O)O)cc1)O2`: the cytotoxicity call in the test on HSkMC and in the test on HepG2 was “inactive” throughout. Moreover, in the test with S. aureus RN4220, the growth inhibition call was “inactive”.
For the compound `CC(C)[C@@H](CS(=O)(=O)C(C)C)N1C(=O)[C@@](C)(CC(=O)O)C[C@H](c2cccc(Cl)c2)[C@H]1c1ccc(Cl)cc1`, the cytotoxicity call with HSkMC and in the test with HepG2 was “inactive” each time. In addition, in the test with S. aureus RN4220, the growth inhibition call was “inactive”.
Consider `COc1cccc(S(=O)(=O)Nc2ccc3c(c2)[C@@H]2C[C@H](CC(=O)NC4CCCCC4)O[C@H](CO)[C@@H]2O3)c1`, for which the cytotoxicity call in the test on HSkMC and in the test on HepG2 was “inactive” each time. The growth inhibition call in the test on S. aureus RN4220 was “inactive”.
As for `C[N+](C)(C)CCCCNC(=O)[C@@H]1C[C@@H]2C(=O)N[C@@H](Cc3ccccc3)C(=O)N2[C@@H]1c1cccc(OCCO)c1`, the cytotoxicity call in the test on HSkMC and in the test with HepG2 was “inactive” throughout. The growth inhibition call with S. aureus RN4220 is “inactive”.
Turning to `C[C@H](CO)N1C[C@H](C)[C@H](CN(C)Cc2ccc(C(=O)O)cc2)Oc2c(NS(C)(=O)=O)cccc2C1=O`, the cytotoxicity call in the test on HSkMC (human skeletal muscle cells) and in the test with HepG2 was “inactive” in each case. Besides, the growth inhibition call in the test with S. aureus RN4220 is “inactive”.
With `C[C@@H]1CCCCO[C@@H](CN(C)C(=O)Nc2ccccc2)[C@H](C)CN([C@H](C)CO)C(=O)c2cc(NC(=O)c3ccccc3)ccc2O1`, the cytotoxicity call in the test with HSkMC and in the test on HepG2 was “inactive” in each case. For the same compound, in the test on S. aureus RN4220, the growth inhibition call is “inactive”.
Take `C[C@H](CO)N1C[C@H](C)[C@@H](CN(C)Cc2ccc(Cl)c(Cl)c2)OCCCC[C@H](C)Oc2ccc(NS(=O)(=O)c3cccs3)cc2C1=O`: the cytotoxicity call with HSkMC and with HepG2 was “inactive” each time. For the same compound, the growth inhibition call in the test on S. aureus RN4220 is “inactive”.
Turning to `COc1ccc(NC(=O)N(C)C[C@H]2Oc3c(NC(=O)C4CCOCC4)cccc3C(=O)N([C@@H](C)CO)C[C@@H]2C)cc1`, the cytotoxicity call in the test with HSkMC and in the test on HepG2 was “inactive” each time. Further, the growth inhibition call with S. aureus RN4220 is “inactive”.
For `O=S(=O)(c1cccc(OC(F)F)c1)N1[C@@H]2CC[C@@H](C2)[C@H]1c1nc2cccc(OCc3ccccc3)c2[nH]1`, the cytotoxicity call with HSkMC and with HepG2 was “inactive” in each case. Moreover, the growth inhibition call in the test with S. aureus RN4220 was “inactive”.
On to `C[C@H](CO)N1C[C@H](C)[C@@H](CN(C)C(=O)Nc2cccc3ccccc23)OCCCC[C@H](C)Oc2ccc(NS(=O)(=O)c3ccccc3)cc2C1=O`, for which the cytotoxicity call with HSkMC and in the test on HepG2 was “inactive” in each case. For the same compound, in the test with S. aureus RN4220, the growth inhibition call was “inactive”.
For `C[C@@H]1CN([C@@H](C)CO)C(=O)c2cc(NS(=O)(=O)c3ccc(F)cc3)ccc2O[C@@H](C)CCCCO[C@H]1CN(C)C(=O)C1CCCCC1`, the cytotoxicity call in the test with HSkMC and in the test on HepG2 was “inactive” in each case. In addition, in the test on S. aureus RN4220, the growth inhibition call is “inactive”.
On to `CC(C)NC(=O)Nc1ccc2c(c1)C(=O)N([C@H](C)CO)C[C@H](C)[C@@H](CN(C)Cc1ccc(C(F)(F)F)cc1)OCCCC[C@H](C)O2`, for which the cytotoxicity call with HSkMC and in the test on HepG2 was “inactive” in each case. Moreover, the growth inhibition call with S. aureus RN4220 is “inactive”.

The values above are taken from the antibiotic and cytotoxicity screens of Wong et al. (2023).
